# Laboratory results as given in a collection of fitness landscapes (doi:10.1016/j.celrep.2020.107928).
# Over roughly 81,000 sequences, “one-hybrid fitness for binding parS DNA” has its median near -0.17; the highest 2% begin near 0.51. Some of the results follow.
# B1: Caulobacter ParB omega fusion; a variant is named by its letters at X, in order, B8GW30 (parent)
# chain: MESVVVGEPGMSEGRRGLGRGLSALLGEVDAAPAQAPGEQLGGSREAPIEILQRNPDQPRRTFREEDLEDLSNSIREKGVLQPILVRPSPDTAGEYQIVAGERAWRAAQRAGLKTVPIMVRELDDLAVLEIGIIENVQRADLNVLEEALSYKVLMEKFERTQENIAQTIGKSXSHVANXMRLLXLPDEVQSYLVSGELTAXHARAIAAAADPVALAKQIIEGGLSVRETEALARKAPNLSAGKSKGGRPPRVKDTDTQALESDLSSVLGLDVSIDHRGSTGTLTITYATLEQLDDLCNRLTRGI
# Variants of: B1
# Test: one-hybrid fitness for binding parS DNA (scaled: cognate 1, non-cognate 0); higher = stronger binding
# Settings: with parS DNA site
# Method in brief: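 Values were rescaled so that cognate is 1 and non-cognate is 0. Each is a fitness, the log change in a variant's read ratio to wild type from Illumina reads of plasmids before and after selection, with three replicate libraries pooled and variants under 10 reads dropped. Selection of the Caulobacter ParB libraries, four specificity codons randomised, used E. coli USO with a HIS3 reporter, site 19 bp from the promoter, on M9-minus-histidine with 0.1 mM IPTG and 5 mM 3-AT for 48 hours at 37°C.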
row,Variant,one-hybrid fitness for binding parS DNA
1,YFYC,≤ 0.2
2,TIGM,≤ 0.2
3,KGPW,≤ 0.2
4,WPYT,≤ 0.2
5,RDGS,≤ 0.2
6,QWVE,≤ 0.2
7,RPPR,≤ 0.2
8,RTRG,0.908
9,ITPF,≤ 0.2
10,ATYD,≤ 0.2
11,PEKP,≤ 0.2
12,PHTW,≤ 0.2
13,LRQQ,≤ 0.2
14,PPKN,≤ 0.2
15,RKQF,≤ 0.2
16,YFYR,≤ 0.2
17,LMDG,≤ 0.2
18,SANT,≤ 0.2
19,ACSR,≤ 0.2
20,PHRN,≤ 0.2
21,RWAL,≤ 0.2
22,KLAE,≤ 0.2
23,RWYS,0.803
24,IHMT,≤ 0.2

row,Variant,one-hybrid fitness for binding parS DNA
1,LWFG,≤ 0.2
2,PDSG,≤ 0.2
3,IYAG,≤ 0.2
4,PNRW,≤ 0.2
5,TQHI,≤ 0.2
6,RPRK,≤ 0.2
7,CHCT,≤ 0.2
8,TMLM,≤ 0.2
9,ENQS,≤ 0.2
10,LKTV,≤ 0.2
11,AMEE,≤ 0.2
12,TFVT,≤ 0.2
13,GTCS,≤ 0.2
14,DVQG,≤ 0.2
15,REVC,≤ 0.2
16,TVNR,≤ 0.2
17,FNCS,≤ 0.2
18,QCHS,≤ 0.2
19,GTHW,≤ 0.2
20,PSSQ,≤ 0.2
21,VHPW,≤ 0.2
22,TGIS,≤ 0.2
23,RHFP,≤ 0.2
24,TYDC,≤ 0.2

row,Variant,one-hybrid fitness for binding parS DNA
1,SEFG,≤ 0.2
2,VLWK,≤ 0.2
3,HIYL,≤ 0.2
4,HSWC,≤ 0.2
5,QVHY,≤ 0.2
6,LGVG,≤ 0.2
7,TREL,≤ 0.2
8,RTWS,1.05
9,YASR,≤ 0.2
10,WTHR,≤ 0.2
11,QTCT,≤ 0.2
12,HRSP,≤ 0.2
13,PERF,≤ 0.2
14,FHHK,≤ 0.2
15,PFEV,≤ 0.2
16,HPFP,≤ 0.2
17,WVTT,≤ 0.2
18,KCHS,≤ 0.2
19,QGVR,≤ 0.2
20,LVYW,≤ 0.2
21,SCAC,≤ 0.2
22,QHWL,≤ 0.2
23,LMVF,≤ 0.2
24,HENW,≤ 0.2

row,Variant,one-hybrid fitness for binding parS DNA
1,GPIR,≤ 0.2
2,QAYS,≤ 0.2
3,LSLD,≤ 0.2
4,TGEC,≤ 0.2
5,WQHR,≤ 0.2
6,QREF,≤ 0.2
7,YVPL,≤ 0.2
8,LAAS,≤ 0.2
9,GRRN,≤ 0.2
10,RLWV,≤ 0.2
11,DLPL,≤ 0.2
12,QSWD,≤ 0.2
13,LNTL,≤ 0.2
14,RDRL,≤ 0.2
15,NEHI,≤ 0.2
16,AQYT,≤ 0.2
17,KTSA,≤ 0.2
18,MRCC,≤ 0.2
19,PWAA,≤ 0.2
20,PYKH,≤ 0.2
21,KSFT,≤ 0.2
22,WEIT,≤ 0.2
23,ICHG,≤ 0.2
24,NWQY,≤ 0.2

row,Variant,one-hybrid fitness for binding parS DNA
1,APKW,≤ 0.2
2,NTSK,≤ 0.2
3,IYPT,≤ 0.2
4,EYSR,≤ 0.2
5,THTA,≤ 0.2
6,FRPR,≤ 0.2
7,NRAY,≤ 0.2
8,QRWM,≤ 0.2
9,AMFA,≤ 0.2
10,AWTC,≤ 0.2
11,WTVP,≤ 0.2
12,HNMP,≤ 0.2
13,GMHF,≤ 0.2
14,YWKN,0.322
15,RNRK,≤ 0.2
16,ERPS,≤ 0.2
17,YPKA,≤ 0.2
18,RIFL,≤ 0.2
19,LTYI,≤ 0.2
20,SSVS,≤ 0.2
21,PGPL,≤ 0.2
22,EDLT,≤ 0.2
23,GQVY,≤ 0.2
24,GHCC,≤ 0.2

row,Variant,one-hybrid fitness for binding parS DNA
1,SWWS,≤ 0.2
2,FALT,≤ 0.2
3,YFSM,≤ 0.2
4,ATGG,≤ 0.2
5,ADKC,≤ 0.2
6,LKCH,≤ 0.2
7,ANTC,≤ 0.2
8,TETY,≤ 0.2
9,YINT,≤ 0.2
10,YGPL,≤ 0.2
11,GIER,≤ 0.2
12,PNKA,≤ 0.2
13,PAHR,≤ 0.2
14,ASSM,≤ 0.2
15,RERW,≤ 0.2
16,GPCS,≤ 0.2
17,KSSG,≤ 0.2
18,DWTV,≤ 0.2
19,LNCS,≤ 0.2
20,QCRK,≤ 0.2
21,ARES,≤ 0.2
22,NFKR,≤ 0.2
23,TSVL,≤ 0.2
24,HMER,≤ 0.2

row,Variant,one-hybrid fitness for binding parS DNA
1,PSAQ,≤ 0.2
2,CQFG,≤ 0.2
3,QGNH,≤ 0.2
4,QVPF,≤ 0.2
5,LVTK,≤ 0.2
6,PFKL,≤ 0.2
7,FMVS,≤ 0.2
8,LVHE,≤ 0.2
9,RRTQ,≤ 0.2
10,NHEL,≤ 0.2
11,SPTA,≤ 0.2
12,ITPW,≤ 0.2
13,STCD,≤ 0.2
14,RQAG,1
15,RKRP,≤ 0.2
16,RHWK,≤ 0.2
17,LGQH,≤ 0.2
18,DFVC,≤ 0.2
19,CTHT,≤ 0.2
20,NPKR,≤ 0.2
21,FGDR,≤ 0.2
22,STGW,≤ 0.2
23,RVDE,≤ 0.2
24,SNRS,≤ 0.2

row,Variant,one-hybrid fitness for binding parS DNA
1,NTAY,≤ 0.2
2,RIHN,0.463
3,QNCT,≤ 0.2
4,QQMC,≤ 0.2
5,SFNT,≤ 0.2
6,VSVR,≤ 0.2
7,IHPK,≤ 0.2
8,LMPL,≤ 0.2
9,HYLR,≤ 0.2
10,VNNS,≤ 0.2
11,LVVW,≤ 0.2
12,SRIL,≤ 0.2
13,MLQW,≤ 0.2
14,QMKD,≤ 0.2
15,DIAI,≤ 0.2
16,FTIN,≤ 0.2
17,LTQY,≤ 0.2
18,VIKG,≤ 0.2
19,HSKT,≤ 0.2
20,CCPM,≤ 0.2
21,HENR,≤ 0.2
22,RQWV,≤ 0.2
23,ATPL,≤ 0.2
24,CSDC,≤ 0.2

row,Variant,one-hybrid fitness for binding parS DNA
1,HQFT,≤ 0.2
2,VSSR,≤ 0.2
3,GRRW,≤ 0.2
4,RCKQ,≤ 0.2
5,CHTG,≤ 0.2
6,PVIN,≤ 0.2
7,FNTP,≤ 0.2
8,TNDL,≤ 0.2
9,DVSM,≤ 0.2
10,PEWS,≤ 0.2
11,ITIR,≤ 0.2
12,DCVK,≤ 0.2
13,GQRA,≤ 0.2
14,RDEQ,≤ 0.2
15,ASTF,≤ 0.2
16,RLFS,1.03
17,QIYL,≤ 0.2
18,NYSG,≤ 0.2
19,FVHV,≤ 0.2
20,LSKD,≤ 0.2
21,PTLV,≤ 0.2
22,RLHN,0.442
23,TPMD,≤ 0.2
24,RSRI,≤ 0.2

row,Variant,one-hybrid fitness for binding parS DNA
1,GREF,≤ 0.2
2,QSHC,≤ 0.2
3,QVTS,≤ 0.2
4,AKNA,≤ 0.2
5,QNYS,≤ 0.2
6,FSPG,≤ 0.2
7,CNSC,≤ 0.2
8,AWGL,≤ 0.2
9,AVDG,≤ 0.2
10,PGTV,≤ 0.2
11,IIIT,≤ 0.2
12,MCKA,≤ 0.2
13,DVRD,≤ 0.2
14,PCGF,≤ 0.2
15,TEPE,≤ 0.2
16,GHYG,≤ 0.2
17,GTRE,≤ 0.2
18,RPDI,≤ 0.2
19,TKEC,≤ 0.2
20,NASI,≤ 0.2
21,RTTK,≤ 0.2
22,KQNC,≤ 0.2
23,GLER,≤ 0.2
24,LSQA,≤ 0.2

row,Variant,one-hybrid fitness for binding parS DNA
1,HQHI,≤ 0.2
2,FKCG,≤ 0.2
3,CETK,≤ 0.2
4,QMST,≤ 0.2
5,RTLT,0.936
6,CLTI,≤ 0.2
7,TQRA,≤ 0.2
8,DLYT,≤ 0.2
9,NKKG,≤ 0.2
10,DFWG,≤ 0.2
11,KRLP,≤ 0.2
12,VGHA,≤ 0.2
13,LQNF,≤ 0.2
14,GPQI,≤ 0.2
15,SPEW,≤ 0.2
16,FMYL,≤ 0.2
17,QRFV,≤ 0.2
18,VIKN,≤ 0.2
19,MDRW,≤ 0.2
20,TVRG,≤ 0.2
21,AADC,≤ 0.2
22,MTKT,≤ 0.2
23,NIHS,≤ 0.2
24,MLQR,≤ 0.2

row,Variant,one-hybrid fitness for binding parS DNA
1,GVWS,≤ 0.2
2,CDIT,≤ 0.2
3,ATKG,≤ 0.2
4,HLLH,≤ 0.2
5,NPAT,≤ 0.2
6,PANH,≤ 0.2
7,VSAF,≤ 0.2
8,QLDH,≤ 0.2
9,ASEV,≤ 0.2
10,RNPH,≤ 0.2
11,THPA,≤ 0.2
12,HFGS,≤ 0.2
13,APGI,≤ 0.2
14,SYTY,≤ 0.2
15,IEVV,≤ 0.2
16,PSCL,≤ 0.2
17,VNCL,≤ 0.2
18,AHEQ,≤ 0.2
19,MKGR,≤ 0.2
20,NHYT,≤ 0.2
21,CGLC,≤ 0.2
22,PPNA,≤ 0.2
23,GYSF,≤ 0.2
24,DIAG,≤ 0.2

row,Variant,one-hybrid fitness for binding parS DNA
1,WDNC,≤ 0.2
2,TNPA,≤ 0.2
3,GPKS,≤ 0.2
4,AFHT,≤ 0.2
5,KNLT,≤ 0.2
6,MFKE,≤ 0.2
7,QNFG,≤ 0.2
8,MITK,≤ 0.2
9,KIFS,≤ 0.2
10,EETS,≤ 0.2
11,RSWQ,≤ 0.2
12,LYEL,≤ 0.2
13,AIFN,≤ 0.2
14,IPRL,≤ 0.2
15,LMRI,≤ 0.2
16,FGAE,≤ 0.2
17,VYVC,≤ 0.2
18,NRRT,≤ 0.2
